Experimental data: the supplement of paper PMC10185492
Some of the results follow. Read counts after selection give these values, which scatter widely.

tested on: SARS-CoV-2 3CLpro (nsp5); assay: substrate phage enrichment score (protease-eluted vs HEPES control, +1 offset) (ratio); higher = better cleaved substrate; conditions: selection round: 3; protease elution time: 0.5 h
Protocol: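 Random heptapeptide substrate phage display (M13 pIII fusion, heptapeptide between an N-terminal biotinylated AviTag GLNDIFEAQKIEWHE and pIII; phages immobilised on streptavidin) eluted by cleavage with 50 nM protease in 20 mM HEPES at 37 °C. Selected phages were NGS sequenced, and the enrichment score is (reads in protease sample + 1)/(reads in HEPES blank-selection control + 1).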

| Substance | substrate phage enrichment score |
| --- | --- |
| GYHASCQ | 0.588 |
| CKLQCSN | > 21 |
| QVPVSMH | 42 |
| PTDVGAR | > 23 |
| TQMCPRP | 2.57 |
| AWPSVVP | > 61 |
| QIQCATQ | 18.5 |
| QEPAMTA | 0.706 |
| AIAAPFR | > 22 |
| DSDQKLI | 11.5 |
| RAVPASM | > 25 |
| KHGDAYT | > 23 |
| YPSESMK | > 36 |
| SDCLTDR | 3.57 |
| THERTDT | 1.79 |
| RHLNALQ | > 42 |
| LSAAAHH | 0.588 |
| VSGQNLG | 2.17 |
| WRASYNE | > 23 |
| SGQVRQC | 1.94 |
| PGAAHHH | 0.971 |
| HPAVLHR | 21 |
| PEAAHHH | 1.03 |
| RMTSALD | > 29 |

| Substance | substrate phage enrichment score |
| --- | --- |
| RVSAHHH | 3.6 |
| ETQSMFR | 1.77 |
| RCKSEGI | > 29 |
| GSAAAQH | 0.9 |
| ENDVIHR | 1.5 |
| KGCCLQA | > 74 |
| LTLEFSH | > 21 |
| CRVCMHR | 3.29 |
| ECQIGCP | 0.0769 |
| LGNPVQP | > 23 |
| QQPGDRD | 4 |
| PLTGDIR | > 52 |
| NSMNTPC | > 39 |
| LSNAGQT | 5 |
| QTLCCKW | 1 |
| ARHCAGC | 0.5 |
| EHGWAFC | 8.33 |
| PACAASC | > 36 |
| LNGNKRD | > 26 |
| NGRSNQR | 1.89 |
| AVLQSGR | > 30 |
| IKCETLQ | > 45 |
| SAAAHNQ | 0.769 |
| RHVKAQA | > 26 |

| Substance | substrate phage enrichment score |
| --- | --- |
| VGRSTCL | 1.38 |
| CPLLHRQ | 0.304 |
| DCRPDPR | 6 |
| EASRNQK | 1.25 |
| RKQSTLQ | > 42 |
| AYNLSGP | > 39 |
| SAAAQQH | 1.18 |
| IAIRHSW | 5 |
| QRHSCML | 0.85 |
| GCAAAHH | 0.915 |
| SPGQATE | > 21 |
| TGACPLR | > 32 |
| PKSASSE | 5 |
| NGTRSRQ | 1.88 |
| SWDGVTE | > 21 |
| CVLGETT | 12.5 |
| EVWIDET | > 35 |
| LELHSQR | 2.67 |
| GSQPDYY | 3 |
| TGRCHRQ | 3.6 |
| LTSPLTT | 2 |
| KGPQMSR | > 28 |
| LKCMQKH | > 35 |
| RDGSEAH | > 36 |

| Substance | substrate phage enrichment score |
| --- | --- |
| PGNGTLS | 1.81 |
| RRDSARL | > 28 |
| RPTTVLR | > 25 |
| SLLQSKQ | > 70 |
| PKACLTT | 9.29 |
| QSAPKSW | > 27 |
| GCTPGQL | > 23 |
| PAVHMQG | 4.5 |
| SEHAAKY | > 22 |
| LCSTACG | 1 |
| YPVNMQV | > 24 |
| VTDFGLR | 1.07 |
| VEDQPGT | 2 |
| RTRGQFG | 7.33 |
| QRSGACR | 8.67 |
| SHRHGSR | > 26 |
| LPRLRLQ | 9.33 |
| FSAAAHH | 1.75 |
| ARHVACG | 10 |
| STLSILQ | > 22 |
| TTLQSDR | > 22 |
| TSGFENR | 14 |
| SAGAHHH | 0.562 |
| ETSSVPD | 13 |

| Substance | substrate phage enrichment score |
| --- | --- |
| EPQVNGQ | 4.6 |
| YKAAHHH | 16 |
| GHREEAA | 4.29 |
| QVQNQRP | > 24 |
| YRDPGRR | 3.67 |
| VRPHLII | 1.8 |
| PGRWTTG | > 21 |
| SAAAQQQ | 0.889 |
| INDLADG | > 56 |
| SHDSNLM | > 29 |
| HLNPEPI | 4.83 |
| PSNTTAH | 1.33 |
| LKARSQH | 3.4 |
| SQPARDC | 4 |
| AQREQQM | 6.25 |
| SKAEERT | > 22 |
| PHGMPHR | > 56 |
| NSKTESD | 0.421 |
| AGCSVCA | 7.6 |
| SNPRELT | > 32 |
| ATNMYAP | > 29 |
